Results are given in words; binding and its absence hold for the method and conditions named. Binding seen in cells or lysates may run through a third protein. Some results given as binding are weak or reduced against the parent protein; the word gives no strength.
B1: IκB kinase β (IKKβ) (protein, UniProt O88351 1-757)
chain: MSWSPSLPTQTCGAWEMKERLGTGGFGNVIRWHNQATGEQIAIKQCRQELSPKNRNRWCLEIQIMRRLNHPNVVAARDVPEGMQNLAPNDLPLLAMEYCQGGDLRRYLNQFENCCGLREGAVLTLLSDIASALRYLHENRIIHRDLKPENIVLQQGEKRLIHKIIDLGYAKELDQGSLCTSFVGTLQYLAPELLEQQKYTVTVDYWSFGTLAFECITGFRPFLPNWQPVQWHSKVRQKSEVDIVVSEDLNGAVKFSSSLPFPNNLNSVLAERLEKWLQLMLMWHPRQRGTDPQYGPNGCFRALDDILNLKLVHVLNMVTGTVHTYPVTEDESLQSLKTRIQENTGILETDQELLQKAGLVLLPDKPATQCISDSKTNEGLTLDMDLVFLLDNSKINYETQITPRPPPESVSCILQEPKRNLSFFQLRKVWGQVWHSIQTLKEDCNRLQQGQRAAMMSLLRNNSCLSKMKNAMASTAQQLKAKLDFFKTSIQIDLEKYKEQTEFGITSDKLLLAWREMEQAVEQCGRENDVKHLVERMMALQTDIVDLQRSPMGRKQGGTLDDLEEQARELYRKLREKPRDQRTEGDSQEMVRLLLQAIQSFEKKVRVIYTQLSKTVVCKQKALELLPKVEEVVSLMNEDERTVVRLQEKRQKELWNLLKIACSKVRGPVSGSPDSMNVSRLSHPGQLMSQPSSACDSLPESDKKSEELVAEAHALCSRLESALQDTVKEQDRSFTTLDWSWLQMEDEERCSLEQACD
B2: IκB kinase α (IKKα) (protein, UniProt Q60680 1-745)
chain: MERPPGLRPGAGGPWEMRERLGTGGFGNVSLYQHRELDLKIAIKSCRLELSSKNRERWCHEIQIMKKLDHANVVKACDVPEELNFLINDVPLLAMEYCSGGDLRKLLNKPENCCGLKESQILSLLSDIGSGIRYLHENKIIHRDLKPENIVLQDVGGKTIHKIIDLGYAKDVDQGSLCTSFVGTLQYLAPELFENKPYTATVDYWSFGTMVFECIAGYRPFLHHLQPFTWHEKIKKKDPKCIFACEEMTGEVRFSSHLPQPNSLCSLIVEPMESWLQLMLNWDPQQRGGPIDLTLKQPRCFALMDHILNLKIVHILNMTSAKIISFLLPCDESLHSLQSRIERETGINTGSQELLSETGISLDPRKPASQCVLDGVRGCDSYMVYLFDKSKTVYEGPFASRSLSDCVNYIVQDSKIQLPIIQLRKVWAEAVHYVSGLKEDYSRLFQGQRAAMLSLLRYNANLTKMKNTLISASQQLKAKLEFFRKSIQLDLERYSEQMTYGISSEKMLKAWKEMEEKAIHYSEVGVIGYLEDQIMSLHTEIMELQKSPYGRRQGDLMESLEQRAIDLYKQLKHRPPDHLYSDSTEMVKIIVHTVQSQDRVLKELFGHLSKLLGCKQKIIDLLPKVEVALSNIKEADNTVMFMQGKRQKEIWHLLKIACTQSSARSLVGSSLEGTVTPPVSAWLPPTLADREHPLTCVVTPQDGETLAQMIEENLNCLGHLSTIIREANEDQSSSLMSLDWSWLAE
B3: TNF receptor-associated factor 2 (TRAF2), P39429 1-501 (protein)
chain: MAAASVTSPGSLELLQPGFSKTLLGTRLEAKYLCSACKNILRRPFQAQCGHRYCSFCLTSILSSGPQNCAACVYEGLYEEGISILESSSAFPDNAARREVESLPAVCPNDGCTWKGTLKEYESCHEGLCPFLLTECPACKGLVRLSEKEHHTEQECPKRSLSCQHCRAPCSHVDLEVHYEVCPKFPLTCDGCGKKKIPRETFQDHVRACSKCRVLCRFHTVGCSEMVETENLQDHELQRLREHLALLLSSFLEAQASPGTLNQVGPELLQRCQILEQKIATFENIVCVLNREVERVAVTAEACSRQHRLDQDKIEALSNKVQQLERSIGLKDLAMADLEQKVSELEVSTYDGVFIWKISDFTRKRQEAVAGRTPAIFSPAFYTSRYGYKMCLRVYLNGDGTGRGTHLSLFFVVMKGPNDALLQWPFNQKVTLMLLDHNNREHVIDAFRPDVTSSSFQRPVSDMNIASGCPLFCPVSKMEAKNSYVRDDAIFIKAIVDLTGL

Chains of the proteins cited; added tags and fusions are not shown.
UniProt Q9Z1E3: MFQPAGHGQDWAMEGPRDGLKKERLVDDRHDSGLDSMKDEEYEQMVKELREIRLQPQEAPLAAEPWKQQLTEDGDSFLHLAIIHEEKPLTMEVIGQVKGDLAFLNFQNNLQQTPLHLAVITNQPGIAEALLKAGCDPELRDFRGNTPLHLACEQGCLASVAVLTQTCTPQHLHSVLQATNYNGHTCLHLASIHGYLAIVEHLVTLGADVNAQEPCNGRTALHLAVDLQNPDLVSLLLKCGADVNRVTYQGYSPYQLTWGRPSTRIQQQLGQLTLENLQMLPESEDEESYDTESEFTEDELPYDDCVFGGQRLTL

What was measured:
[1] = molecular target: NF-κB essential modulator (NEMO) (mouse (endogenous in Raw 264.7)) (UniProt O88522); test: co-IP; NEMO immunoprecipitated (agarose-conjugated NEMO FL-419 antibody, 4 h, or antibody plus Dynabeads) at 4 °C from NP-40 lysates of Raw 264.7 cells; cells pretreated 30 min with DMSO, NBD mimetics (100 μM) or SR12343 (0, 25, 50, 100, 150 μM); blots for IKKβ, IKKα, TRAF2, IκBα
[2] = molecular target: NF-κB essential modulator (NEMO) (mouse (endogenous in Raw 264.7)) (UniProt O88522); test: co-IP; Raw 264.7 cells pretreated 30 min with 8K-NBD peptide (400 μM), then NEMO immunoprecipitated from NP-40 lysate and blotted for IKKβ; only the binder purified
[3] = molecular target: T1, NF-κB essential modulator (NEMO) (mouse (endogenous in Raw 264.7)), O88522; test: co-IP; NEMO immunoprecipitated (agarose-conjugated NEMO FL-419 antibody, 4 h, or antibody plus Dynabeads) at 4 °C from NP-40 lysates of Raw 264.7 cells; cells pretreated 30 min with DMSO, NBD mimetics (100 μM) or SR12343 (0, 25, 50, 100, 150 μM); blots for IKKβ, IKKα, TRAF2, IκBα; details: remark: other sources report otherwise
T1 chain: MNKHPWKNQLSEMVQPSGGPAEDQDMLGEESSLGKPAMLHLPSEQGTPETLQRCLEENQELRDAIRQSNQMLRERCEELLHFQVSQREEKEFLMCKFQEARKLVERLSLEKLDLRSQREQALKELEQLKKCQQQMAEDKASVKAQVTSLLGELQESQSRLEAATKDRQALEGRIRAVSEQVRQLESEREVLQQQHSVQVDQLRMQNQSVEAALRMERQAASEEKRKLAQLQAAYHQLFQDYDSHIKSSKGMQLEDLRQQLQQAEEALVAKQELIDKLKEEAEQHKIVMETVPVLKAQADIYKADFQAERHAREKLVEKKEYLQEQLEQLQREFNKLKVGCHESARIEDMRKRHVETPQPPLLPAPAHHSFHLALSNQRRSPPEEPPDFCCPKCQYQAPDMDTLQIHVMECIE

Molecule | binding [1] | also measured
IκBα (from UniProt Q9Z1E3 1-314) | no binding | –
B1 | binds | –
B2 | binds | –
KKKKKKKKGGTALDWSWLQTE [8K-NBD peptide] | – | binding [2]: binds
B3 | – | binding [3]: no binding
